The target of this assay is Genome polyprotein (dengue virus type 2) (UniProt P29990).
Where [1] appears, read: Thailand/16681/1984, Concentration 25.0 uM, Number of replicates 1.0.

This is an account of results in ChEMBL document CHEMBL5606460, “ASAP - DENV-2 NS2B-NS3 protease fluorescence single point” (2024).

Molecules are shown by their SMILES. Among all 2,000 compounds or so, about 110 (5.5%) showed an effect of 50% or more. Some of the results follow.

As usually defined, the inhibition is the relative decrease from the control value, in per cent.

As for `Cc1cc(CO)c2cccc(NCc3c(C)noc3C)c2n1`, the inhibition runs as follows: (Thailand/16681/1984, Concentration 49.95 uM, Number of replicates 2.0, Standard deviation 0.8427159521442895 %) 0.852%; (Thailand/16681/1984, Concentration 99.9 uM, Number of replicates 2.0, Standard deviation 0.2103451428490176 %) 5.75%.

Consider `N#Cc1ccc(C[C@H](NC(=O)c2ccccc2)C(=O)N2CCC[C@@H](CN)C2)cc1`, for which the inhibition runs as follows: (Thailand/16681/1984, Concentration 49.5 uM, Number of replicates 2.0, Standard deviation 1.2392432810036351 %) -3.41%; (Thailand/16681/1984, Concentration 99.01 uM, Number of replicates 2.0, Standard deviation 1.3682310134729216 %) -3.89%; (Thailand/16681/1984, Concentration 198.0 uM, Number of replicates 2.0, Standard deviation 0.950885838847499 %) -4.55%.

Take `CNC(=O)c1cc(Cl)ccc1NS(=O)(=O)c1[nH]ncc1C(=O)OC`: the inhibition (Thailand/16681/1984, Concentration 49.5 uM, Number of replicates 2.0, Standard deviation 1.242021000664882 %) is -1.06%; the inhibition (Thailand/16681/1984, Concentration 99.01 uM, Number of replicates 2.0, Standard deviation 0.08117786480507469 %) stood at 0.923%; the inhibition (Thailand/16681/1984, Concentration 198.0 uM, Number of replicates 2.0, Standard deviation 0.003820190349027435 %) was found to be 2.41%.

As for `O=Cc1ccc(N2CCC(C(=O)Nc3ccc(F)cc3Br)CC2)cc1`, the inhibition under setting [1] stood at 11.5%.

For `Cn1cc(NC(=O)c2ccccc2C(F)(F)F)c(-c2cccc3cc[nH]c23)n1`, the inhibition (Thailand/16681/1984, Concentration 49.5 uM, Number of replicates 2.0, Standard deviation 3.1084528093012986 %) is -0.205%; the inhibition (Thailand/16681/1984, Concentration 99.01 uM, Number of replicates 2.0, Standard deviation 3.574033871935681 %) was determined as 0.463%; the inhibition (Thailand/16681/1984, Concentration 198.0 uM, Number of replicates 2.0, Standard deviation 2.53248645301858 %) stood at 3.8%.

As for `c1cc(C2CCN(Cc3c[nH]c4ccccc34)CC2)c2ccncc2c1`, the inhibition (Thailand/16681/1984, Concentration 49.5 uM, Number of replicates 2.0, Standard deviation 0.5847129231667904 %) was 1.3%; the inhibition (Thailand/16681/1984, Concentration 99.01 uM, Number of replicates 2.0, Standard deviation 0.7302727121768634 %) is 3.47%; the inhibition (Thailand/16681/1984, Concentration 198.0 uM, Number of replicates 2.0, Standard deviation 0.8919143055858442 %) worked out at 5.67%.

For `COc1ncc(NC(=O)C2CCN(c3ccc(C=O)cc3)CC2)cc1Br`, under setting [1], the inhibition is 9.05%.

Turning to `CNC(=O)c1cc(Cl)ccc1NS(=O)(=O)c1cccc(S(N)(=O)=O)c1`, the inhibition is 1.73% (Thailand/16681/1984, Concentration 49.5 uM, Number of replicates 2.0, Standard deviation 0.4003966624337367 %); 3.26% (Thailand/16681/1984, Concentration 99.01 uM, Number of replicates 2.0, Standard deviation 1.0615056375609497 %); 5.28% (Thailand/16681/1984, Concentration 198.0 uM, Number of replicates 2.0, Standard deviation 0.04640199433655389 %).

With `Cc1cc(CO)c2cccc(Cc3cccc(NC(=O)C(=O)c4ccco4)c3)c2n1`, the inhibition (Thailand/16681/1984, Concentration 49.95 uM, Number of replicates 2.0, Standard deviation 2.5499602835301056 %) was -0.234% and the inhibition (Thailand/16681/1984, Concentration 99.9 uM, Number of replicates 2.0, Standard deviation 0.7837509937910023 %) is -0.946%.

Take `Cc1ccc2n1CCN(C(=O)C1CCN(c3ccc(C=O)cc3)CC1)[C@H]2C`: the inhibition under setting [1] was determined as 3.87%.

Regarding `O=Cc1ccc(N2CCC(C(=O)N3CCN(S(=O)(=O)N4CCOCC4)CC3)CC2)cc1`, the inhibition under setting [1] was 13.5%.

Take `c1ccc(CN2CC[C@H](c3c[nH]c4ccccc34)C2)nc1`: the inhibition runs as follows: (Thailand/16681/1984, Concentration 49.5 uM, Number of replicates 2.0, Standard deviation 0.540853837861717 %) 0.05%; (Thailand/16681/1984, Concentration 99.01 uM, Number of replicates 2.0, Standard deviation 0.7402869166527072 %) 0.515%; (Thailand/16681/1984, Concentration 198.0 uM, Number of replicates 2.0, Standard deviation 1.8615560399297217 %) 2.31%.

Regarding `COc1ccc(-c2ccccc2C(=O)Nc2cnn(C)c2)cc1F`, the inhibition stood at 2.06% (Thailand/16681/1984, Concentration 49.5 uM, Number of replicates 2.0, Standard deviation 4.242255928539229 %); 0.017% (Thailand/16681/1984, Concentration 99.01 uM, Number of replicates 2.0, Standard deviation 0.9271676998479934 %); 0.177% (Thailand/16681/1984, Concentration 198.0 uM, Number of replicates 2.0, Standard deviation 0.9178960464517486 %).

Regarding `CNC(=O)c1cccc(CCC(=O)Nc2cc(Cl)cc(C(=O)NC(C)(C)CO)c2)c1`, the inhibition is, setting by setting: (Thailand/16681/1984, Concentration 49.5 uM, Number of replicates 2.0, Standard deviation 19.518689391215933 %) 8.34%; (Thailand/16681/1984, Concentration 99.01 uM, Number of replicates 2.0, Standard deviation 1.6573341598197608 %) -0.495%; (Thailand/16681/1984, Concentration 198.0 uM, Number of replicates 2.0, Standard deviation 1.0104917664729398 %) -3.06%.

As to `Cc1nnc(Cn2cc(C3CCNCC3)c(C)n2)s1`, the inhibition (Thailand/16681/1984, Concentration 49.5 uM, Number of replicates 2.0, Standard deviation 0.1829917327983261 %) is -0.443%; the inhibition (Thailand/16681/1984, Concentration 99.01 uM, Number of replicates 2.0, Standard deviation 0.5888347947305582 %) was -0.409%; the inhibition (Thailand/16681/1984, Concentration 198.0 uM, Number of replicates 2.0, Standard deviation 0.0063413305332520944 %) was -0.948%.

On to `Cc1cc(CO)c2cccc(Cc3ccccc3C(=O)Nc3nonc3C(N)=O)c2n1`, for which the inhibition runs as follows: (Thailand/16681/1984, Concentration 49.95 uM, Number of replicates 2.0, Standard deviation 0.20481615067396447 %) 9.42%; (Thailand/16681/1984, Concentration 99.9 uM, Number of replicates 2.0, Standard deviation 0.252245853764608 %) 28.4%.

With `COCCOCCOCCNC(=O)C1CCN(c2ccc(C=O)cc2)CC1`, under setting [1], the inhibition was 12.8%.

For the compound `Cc1cc(N)c2ccc(Cl)c(Cl)c2n1`, the inhibition by setting is: (Thailand/16681/1984, Concentration 49.95 uM, Number of replicates 2.0, Standard deviation 7.937403511191421 %) -5.89%; (Thailand/16681/1984, Concentration 99.9 uM, Number of replicates 2.0, Standard deviation 7.875707869059826 %) -5.65%.

On to `CC(C)Cn1cccc(C(=O)Nc2ccncc2C2CC2)c1=O`, for which the inhibition by setting is: (Thailand/16681/1984, Concentration 49.5 uM, Number of replicates 2.0, Standard deviation 1.2909448200719489 %) 4.27%; (Thailand/16681/1984, Concentration 99.01 uM, Number of replicates 2.0, Standard deviation 4.556150504456328 %) 2.96%; (Thailand/16681/1984, Concentration 198.0 uM, Number of replicates 2.0, Standard deviation 3.815802862097451 %) 0.046%.

For `Cn1cc(NC(=O)c2ccccc2C(F)(F)F)c(C=Cc2cc(F)cc(F)c2)n1`, the inhibition is -3.17% (Thailand/16681/1984, Concentration 49.5 uM, Number of replicates 2.0, Standard deviation 3.560297076041071 %); -4.03% (Thailand/16681/1984, Concentration 99.01 uM, Number of replicates 2.0, Standard deviation 3.05890219249989 %); -0.417% (Thailand/16681/1984, Concentration 198.0 uM, Number of replicates 2.0, Standard deviation 1.749976473181981 %).
